# The full ranking holds about 110,000 compounds; the median of “z-score” is about -0.1, and the highest 2% start at about 2. The list shows a part of the results.
# Target: Metabotropic glutamate receptor 8 (Rattus norvegicus) (UniProt P70579)
# Test: mGluR8 Gi/Go-coupled signaling modulation – cell-based, rat, thallium flux, HTS, primary screen (AID 488969)
# Settings: HEK293 rat mGluR8, GIRK (G protein-gated inwardly rectifying potassium channel) thallium flux, FluoZin2; at 10 µM; stronger effect = higher value; submaximal glutamate (EC20) added with thallium
# Chain of UniProt P70579 (P70579 whole entry, looked up): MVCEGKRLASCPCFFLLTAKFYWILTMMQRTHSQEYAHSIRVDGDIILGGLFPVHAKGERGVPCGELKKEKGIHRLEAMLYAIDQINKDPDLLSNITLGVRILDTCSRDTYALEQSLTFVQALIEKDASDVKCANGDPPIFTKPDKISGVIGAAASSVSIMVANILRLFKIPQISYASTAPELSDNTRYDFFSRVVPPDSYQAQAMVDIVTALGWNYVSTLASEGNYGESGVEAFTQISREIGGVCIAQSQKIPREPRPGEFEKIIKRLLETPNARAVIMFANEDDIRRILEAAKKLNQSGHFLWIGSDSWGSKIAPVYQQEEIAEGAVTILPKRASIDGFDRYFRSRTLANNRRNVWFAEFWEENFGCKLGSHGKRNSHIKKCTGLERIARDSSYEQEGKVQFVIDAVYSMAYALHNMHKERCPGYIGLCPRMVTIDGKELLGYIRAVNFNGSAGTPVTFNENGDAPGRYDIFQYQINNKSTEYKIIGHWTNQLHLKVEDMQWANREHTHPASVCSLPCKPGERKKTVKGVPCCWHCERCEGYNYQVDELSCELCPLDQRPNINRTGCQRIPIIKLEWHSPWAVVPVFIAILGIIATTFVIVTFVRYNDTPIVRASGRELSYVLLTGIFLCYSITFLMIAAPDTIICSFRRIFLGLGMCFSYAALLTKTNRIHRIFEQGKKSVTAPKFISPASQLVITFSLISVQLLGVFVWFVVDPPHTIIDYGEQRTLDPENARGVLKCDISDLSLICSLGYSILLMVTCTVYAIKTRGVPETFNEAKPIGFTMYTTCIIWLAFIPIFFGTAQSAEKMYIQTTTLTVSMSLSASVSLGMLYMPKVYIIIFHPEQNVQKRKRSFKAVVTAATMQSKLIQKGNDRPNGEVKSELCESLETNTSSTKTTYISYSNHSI
row,Structure (SMILES),z-score
1,O=c1c2c(nc3cc(-c4ccccc4)[nH]n13)CCC2,-0.413
2,CC(=O)N(C)C1(c2nnnn2CCOC(=O)Nc2cccc3ccccc23)CCCC1,0.187
3,C/C(=N\NC(=O)COc1ccc(C#N)cc1)c1ccccc1OC(F)F,0.0716
4,CCOC(=O)c1c(C)oc2c1c(C=NC1CCS(=O)(=O)C1)c(O)c1ccccc12 (centres undefined),-0.323
5,O=C(N/C=N/OCc1ccc(Cl)cc1Cl)NOCc1ncc(C(F)(F)F)cc1Cl,0.75
6,COC(=O)c1sccc1NC(=O)c1cc(C)on1,-0.898
7,Cc1ccc(S(=O)(=O)n2cnc3cc([N+](=O)[O-])ccc32)c(C)c1,-0.00845
8,N#CCCn1cc(/C=N/NC(=O)c2ccncc2)c(-c2ccc(F)cc2)n1,-0.112
9,CCCOc1cc(C)c(S(=O)(=O)n2nnc3ccccc32)cc1C,0.195
10,COc1ccc(-n2c(Cc3cccn3C)nnc2SCC(=O)Nc2ccc(C(C)=O)cc2)cc1,-0.586
11,O=C(O)CSc1nc(-c2ccccc2)cc(=O)[nH]1,-0.00201
12,C=CCSc1nccc(-c2nn(-c3ccc(C)cc3)ccc2=O)n1,-0.168
13,Fc1ccccc1CNCCC(Cc1ccccc1)c1ccc2c(c1)OCO2 (centres undefined),0.733
14,O=C(OCCN1C(=O)c2cccc3c(N4CCOCC4)ccc(c23)C1=O)c1cccc(Cl)c1,2.81
15,NCCN1CCN(CCN)CC1,0.79
16,O=c1[nH]c(SCc2nc3ccccc3n2Cc2ccccc2)nc2ccccc12,-0.408
17,O=c1cc(CSc2nnc(-c3cccnc3)n2-c2ccccc2F)nc2sccn12,0.585
18,Cc1cc(C)nc(N2CCCC(C(=O)NCC(c3ccccc3)c3ccccc3)C2)n1 (centres undefined),0.0177
19,CC(=O)NCc1nc2ccccc2n1Cc1ccccc1C,-0.353
20,O=C(CN1CCN(c2ccccc2F)CC1)N1N=CCC1c1ccccc1 (centres undefined),0.0133
21,CCN(CC)CCCNc1oc(-c2cccc(Cl)c2)nc1C#N,1.31
22,NC(=O)CCn1c(=O)oc2ccccc21,0.517
23,Cc1ccc(CCNC(=O)C23CN(Cc4ccccc4)CC2C(c2ccc([N+](=O)[O-])cc2)=NO3)cc1 (centres undefined),-0.0964

row,Structure (SMILES),z-score
1,Cc1ccccc1NC(=S)NCc1ccc2c(c1)OCO2,-0.132
2,CNC(=O)n1ccc(C(=O)N2CCCCC2)n1,0.461
3,Cc1ccc(Cn2nnc3c(=O)[nH]c(C4CCN(C(=O)Cc5cccs5)CC4)nc32)cc1,0.636
4,Cc1cc(NC(=O)CN2CCC(n3nnc4cc(C(F)(F)F)ccc43)CC2)no1,-0.277
5,CCOC(=O)Cc1csc(NC(=O)NC2(C(F)(F)F)Oc3ccccc3O2)n1,-0.266
6,Cc1ccc2cc(/C=N/NC(=O)[C@H](C)NC(=O)OC(C)(C)C)c(Cl)nc2c1,0.0812
7,O=C(CSc1nc2c(c(C(F)(F)F)n1)CCc1ccccc1-2)NCc1ccc(F)cc1,0.759
8,COc1cc(/C=C(\C#N)c2nc3ccccc3[nH]2)cc(Br)c1OCc1ccccc1,0.0675
9,Cc1ccc(S(=O)(=O)N(C)C)cc1NC(=O)CSc1nc2ccccc2[nH]1,-0.0977
10,COc1cc(OC)c(C2C(C(=O)Nc3ccccc3)=C(C)Nc3ncnn32)cc1OC (centres undefined),1.45
11,Cn1c(=O)c2cc(S(=O)(=O)N3CCOCC3)ccc2n(C)c1=O,0.139
12,CCN(CC)S(=O)(=O)c1cccc(C(=O)OCc2cc(=O)n3nc(C)sc3n2)c1,1.93
13,COc1ccc2c(c1OC)C(=O)OC2CC(=O)O (centres undefined),0.0305
14,Cc1cc(Br)c(S(=O)(=O)n2nnc3ccccc32)cc1C,0.289
15,c1csc(-c2csc3ncnc(NCCCN4CCOCC4)c23)c1,0.0839
16,N#CCSc1nc2ccccc2c2nc3ccccc3n12,1.3
17,CC1CCN(C(C(=O)Nc2ccc3c(c2)OCO3)c2ccccc2)CC1 (centres undefined),0.852
18,Cc1sc2nc(CSc3cccc(C(F)(F)F)c3)[nH]c(=O)c2c1C,-0.243
19,COc1ccc(-c2oc3ncn4nc(Cc5ccccc5)nc4c3c2-c2ccc(OC)cc2)cc1,-0.304
20,COc1ccc(C(=O)CN2C(=O)NC(C)(c3ccc(C)cc3)C2=O)cc1OC (centres undefined),0.117
21,O=C(NCCCN1CCOCC1)NC1CCCCC1,0.0832
22,Cc1ccc(C(=O)NCCSC(C)(C)C)cc1,-0.631
23,CCC1(C)Cc2c(sc3c2c(=O)n(C)c2nnc(SCC(=O)c4ccccc4)n32)CO1 (centres undefined),-0.469

row,Structure (SMILES),z-score
1,Cc1cc(-c2n[nH]c(=S)n2/N=C/c2cccs2)n[nH]1,-0.233
2,O=C(Nc1c(C(=O)Nc2cccc3ccccc23)cnn1-c1ccccc1)c1ccco1,-0.454
3,COc1ccc(Oc2cc(C)c3ccccc3n2)cc1,-0.218
4,CS(=O)(=O)N(CC(=O)Nc1ccc2c(c1)OCO2)c1ccc(Cl)cc1,-0.572
5,O=C(c1ccco1)N1CCC(c2nc(-c3ccccc3Cl)no2)CC1,-0.00356
6,Cn1c(=O)c2c(nc(Sc3ncccn3)n2Cc2ccccc2Cl)n(C)c1=O,-0.0395
7,CC(C)C(C)(C#N)NC(=O)CSc1nnc(-c2ccccc2)o1 (centres undefined),-0.849
8,Cc1noc(C)c1S(=O)(=O)N1CCCC(C(=O)NCCc2ccc(Cl)cc2)C1 (centres undefined),-0.0482
9,COc1ccc(CCNC(=O)COc2ccc(S(=O)(=O)N3CCOCC3)cc2)cc1,0.871
10,CC(=O)Nc1ccc(NC(=O)CN(c2ccc(C34CC5CC(CC(C5)C3)C4)cc2)S(C)(=O)=O)cc1,0.0357
11,O=C(NCc1ccco1)c1ccc(Br)c(S(=O)(=O)N2CCCCC2)c1,-0.271
12,C=CCc1cccc(/C=N/n2cnnc2)c1O,0.0603
13,O=C(Oc1ccc(Cl)cc1)c1ccc(N2CCOCC2)c([N+](=O)[O-])c1,0.173
14,O=C(Cn1c(=O)oc2ccccc21)N1CCCCC1,-0.313
15,CCCCC(c1nnnn1CCOC)N1CCN(CC)CC1 (centres undefined),0.726
16,Clc1ccc2nc(CN3CCCc4ccccc43)cn2c1,-0.482
17,CCOC(=O)N1CCN(C(=O)c2ccc(Cl)c(S(=O)(=O)N3CCOCC3)c2)CC1,-0.0962
18,CCOC(=O)C1=C(C)NC(=O)NC1c1ccccc1Cl (centres undefined),-1.03
19,CCOC(=O)c1cc2c(nc1N)CC(C)(CC)OC2 (centres undefined),-0.0521
20,O=C(Nc1cccc([N+](=O)[O-])c1)c1ccc(CN2CCOCC2)cc1,-0.154
21,CC(C)N1CC=C2C(C#N)=C(N)C(C#N)(C#N)[C@H](c3ccoc3)[C@H]2C1,-1.02
22,C/C(=N\NC(N)=S)C12CC3CC(CC(C3)C1)C2,2.47
23,CN(Cc1cn(-c2ccccc2)nc1-c1ccc(Cl)cc1)C(=O)CCC(=O)O,-0.417
